PubChem BioAssay AID624417 (National Center for Advancing Translational Sciences (NCATS), 2012)
Several values for one entry are separate records, joined by “and”; a condition that tells them apart may be missing. Equal entries are not always repeated. In all, about 410,000 compounds went through this assay and about 6,400 (1.6%) were called active. The inconclusive results got no clear call from the source; some entries with a clear call stand among them for comparison. The call rests on the fitted dose curve; in most records, active means well fitted inhibition curve with a large enough effect; inconclusive means small, poorly fitted or top-dose-only effect; inactive means no such curve, though single readings can be large or run the other way. A potency beside an inconclusive call is a rough fit, not a confirmed value.

Target: Glucagon-like peptide 1 receptor (Homo sapiens) (UniProt P43220)
Assay: qHTS of GLP-1 Receptor Inverse Agonists (Inhibition Mode); further: nearly all actives have a fitted effect of over 55% in size
Conditions: HEK293 GLP-1R CRE-luciferase, luminescence, 24 h, GLP-1R form is constitutively active; activity change, negative = inhibition: at 38.3 µM (top of the series) unless noted
Outline: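 HEK293 cells stably co-expressing constitutively active GLP-1R and a cAMP-responsive luciferase reporter were seeded in DMEM with 10% Nu serum, given compounds after 12 h, and incubated 24 h at 37 deg C. Luminescence was then read.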
On the % scale 0 is the no-effect control and ±100 the full control effect; potency means the concentration at half of the fitted maximal effect; tags describe the fitted curve by direction and shape.

Chain of UniProt P43220 (P43220 whole entry, looked up): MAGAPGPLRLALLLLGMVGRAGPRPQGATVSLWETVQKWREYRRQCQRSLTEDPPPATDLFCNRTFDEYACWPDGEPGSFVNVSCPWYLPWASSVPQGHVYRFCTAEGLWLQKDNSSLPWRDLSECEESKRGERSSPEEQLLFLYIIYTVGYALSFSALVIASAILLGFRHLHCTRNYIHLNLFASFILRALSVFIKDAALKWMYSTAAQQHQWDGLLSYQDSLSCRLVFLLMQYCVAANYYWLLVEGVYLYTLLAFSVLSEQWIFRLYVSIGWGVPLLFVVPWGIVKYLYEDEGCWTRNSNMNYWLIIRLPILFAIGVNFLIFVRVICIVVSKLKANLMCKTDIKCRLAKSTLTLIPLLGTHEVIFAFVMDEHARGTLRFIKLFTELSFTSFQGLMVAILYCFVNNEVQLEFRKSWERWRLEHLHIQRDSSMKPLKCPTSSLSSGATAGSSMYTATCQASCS

SMILES | Potency | activity change, negative = inhibition
COc1cccc(C(c2nnnn2CCc2ccccc2)N2CCN(c3ccccc3)CC2)c1OC (stereo not drawn) | inconclusive: 11.2 µM [inhibitor, single point] | 
Cc1ccc(S(=O)(=O)N2CCCCC2)cc1NC(=O)COC(=O)Cc1cccc2ccccc12 | inconclusive: 12.6 µM [inhibitor, single point] | 
COc1ccc(NC(=O)Cn2nnc(C(=O)NCc3ccccc3)c2N)c(OC)c1 | inconclusive: 6.31 µM [inhibitor, partial curve, poor fit] | 
CCc1nc(SC)ncc1C(=O)NCc1cccc(Br)c1 |  | inactive: 5.16%
CCCCn1nc2cc(C(=O)NCc3ccc(OC(F)(F)F)cc3)ccc2c1OC | inconclusive: 11.2 µM [inhibitor, partial curve, poor fit] | 
COc1ccccc1-c1cn[nH]c1-c1ccc(OCc2ccc(F)cc2)cc1O | inconclusive: 28.2 µM [inhibitor, single point] | 
Cn1nc(C2CC2)cc1NC(=O)C1(C)CCN1C(=O)CC(c1ccccc1)c1ccccc1 (stereo not drawn) | inconclusive: 14.1 µM [inhibitor, single point] | 
O=C(Nc1ccc(OC(F)F)c(Cl)c1)C(c1ccccc1)c1ccccc1 | inconclusive: 2.82 µM [inhibitor, full curve] | 
COc1cc(/C=C2/C(=O)NN(c3ccccc3)C2=O)cc(Br)c1O | inconclusive: 1.78 µM [inhibitor, full curve, poor fit] | 
C#Cc1ccc(C(=O)Nc2ccc(N3CCC(C)CC3)c(C(N)=O)c2)cc1 | active: 8.91 µM | 
CCN(c1ccccc1C)S(=O)(=O)c1nnc(NC(=O)c2ccc(OC)c(OC)c2)s1 |  | inactive: -7.98%
O=C(NCCOc1ccccc1)C1CCC(=O)N(CCc2ccc(Cl)cc2)C1 (stereo not drawn) | inconclusive: 10 µM [inhibitor, partial curve, poor fit] | 
O=C(CSc1ncnc2ccccc12)NCc1ccc2c(c1)OCO2 | inconclusive: 2.82 µM [inhibitor, full curve, poor fit] | 
CC1(C(=O)Nc2ccc(Cl)c(C(F)(F)F)c2)Cc2c(-c3cccc(C(N)=O)c3)ccnc2O1 (stereo not drawn) | inconclusive: 11.2 µM [inhibitor, partial curve, poor fit] | 
O=C(NCCSc1c[nH]c2ccccc12)c1ccc(Cl)cc1 | inconclusive: 11.2 µM [inhibitor, single point] | 
O=C(/C=C/c1ccc(O)cc1)c1ccc(NC2=C(N3CCCCC3)C(=O)c3ccccc3C2=O)cc1 |  | inactive: -16.2%
O=C(NCCc1ccccc1)c1ccc2c(c1)N(Cc1ccc(Cl)cc1)C(=O)c1ccccc1S2(=O)=O | inconclusive: 12.6 µM [inhibitor, single point] | 
COc1ccc(S(=O)(=O)N2CCC(c3cc(-c4cccc5ccccc45)n[nH]3)CC2)cc1 | inconclusive: 0.891 µM [inhibitor, full curve, poor fit] | 
O=C(NCC(=O)N1CCN(c2ccccc2)CC1)c1ccc(Cl)cc1 |  | inactive: -6.76%

SMILES | Potency | activity change, negative = inhibition
CCCCC(CC)CNC(=O)CN(C)S(=O)(=O)c1cccc2nsnc12 (stereo not drawn) | inconclusive: 28.2 µM [inhibitor, single point] | 
O=C1C(Cc2ccccc2)Nc2ncnc(N3CCN(c4ccccc4)CC3)c2N1Cc1ccc(Br)cc1 (stereo not drawn) | inconclusive: 28.2 µM [inhibitor, single point] and inconclusive: 10 µM [inhibitor, partial curve, poor fit] | 
Cc1ccc(N2CC(NC(=O)CCCc3ccccc3)CC2=O)cc1 (stereo not drawn) |  | inactive: 4.89%
CCN(CCCNC(=O)c1[nH]c(C)c(C(C)=O)c1C)c1ccccc1 | inconclusive: 28.2 µM [inhibitor, single point] | 
O=S(=O)(c1ccccc1OC(F)(F)F)N1CCN(c2ccnc3cc(Cl)ccc23)CC1 | inconclusive: 12.6 µM [inhibitor, partial curve, poor fit] | 
COc1ccc(C(=O)CC2(O)C(=O)N(Cc3ccccc3)c3ccc(Br)cc32)cc1 (stereo not drawn) | inconclusive: 11.2 µM [inhibitor, partial curve] | 
CN(c1ccc(C(=O)N2CCN(Cc3ccccc3)CC2)cc1)S(=O)(=O)c1ccc(Cl)cc1 | inconclusive: 7.94 µM [inhibitor, partial curve, poor fit] | 
O=C1CCC2(CC1)NC(=O)N(c1ccccc1)N2 | inconclusive: 5.01 µM [inhibitor, full curve, poor fit] | 
CCC/C=C/c1ccc(CN2C(CC(C)C)C(=O)N(Cc3cn(CCC4OCCO4)nn3)CCS2(=O)=O)cc1 (stereo not drawn) | inconclusive: 12.6 µM [inhibitor, single point] | 
O=C(NCc1ccco1)C1CCN(c2nc3ccccc3n2Cc2ccc(F)cc2)CC1 | inconclusive: 11.2 µM [inhibitor, partial curve, poor fit] | 
O=C(Nc1cccc(S(=O)(=O)NC2=NCCC2)c1)c1ccc(C(F)(F)F)cc1 | inconclusive: 17.8 µM [inhibitor, partial curve, poor fit] | 
N#CCN1C(=S)N=C(Nc2cccc(Cl)c2)C12CCCCC2 |  | inactive: -13.8%
COc1ccc(Cn2c(O)c(C=Nc3ccccc3)c3ccccc3c2=O)cc1 |  | inactive: 6.9%
COCCNC(C(=O)Nc1cc(Cl)cc(Cl)c1)c1ccccc1 (stereo not drawn) | inconclusive: 11.2 µM [inhibitor, partial curve, poor fit] | 
Cc1ccc(NS(=O)(=O)c2ccc(CCC(=O)N3CCCC3)cc2)cc1 | inconclusive: 25.1 µM [inhibitor, partial curve, poor fit] | 
CCOC(=O)C1(CCOc2ccccc2)CCN(Cc2cnc(C)s2)CC1 | inconclusive: 2.82 µM [inhibitor, partial curve, poor fit] | 
CCc1ccc2c(CC(=O)Nc3nnc(C4CC4)s3)coc2c1 | inconclusive: 3.55 µM [inhibitor, partial curve] | 
CC(C)(C)N1CC(C(=O)Nc2ccc(S(=O)(=O)N3CCCCC3)cc2)CC1=O (stereo not drawn) |  | inactive: -21.3%
CCOC(=O)c1c(Nc2ccc(C)c(C)c2)nnc(-c2ccccc2)c1-c1ccccc1 | inconclusive: 14.1 µM [inhibitor, partial curve, poor fit] | 
